Test results as given in PubChem BioAssay AID624296 (National Center for Advancing Translational Sciences (NCATS), 2012).
The whole screen tested about 350,000 compounds, of which about 9,900 (2.8%) were called active. The inconclusive results got no clear call from the source; some entries with a clear call stand among them for comparison. Calls follow the shape of the dose curve; as a rule, active = well fitted activation curve with a large enough effect; inconclusive = small, poorly fitted or top-dose-only effect; inactive = no such curve, though single readings can be large or run the other way. Potencies of inconclusive entries are left out as doubtful fits.

Assay: A quantitative high throughput screen for small molecules that induce DNA re-replication in MCF 10a normal breast cells. Also: nearly all actives have a fitted effect of over 50% in size.
Details: MCF 10A DNA re-replication, Hoechst nuclear intensity, 48 h; series mostly up to 46.1 µM
Potency is read from the fitted curve at half-maximal effect; tags tell the direction and shape of the fitted curve.

Structure (SMILES)	Potency
Cc1cc(C)n(-c2nc(SCC(=O)Nc3nccs3)c3c4c(sc3n2)COC(C)(C)C4)n1	inconclusive [activator, single point]
CC(=NNC(=O)c1ccncc1)c1ccc(Cl)c(Cl)c1	inactive
COc1ccccc1-n1ccnc(SCC(=O)NCCc2ccccc2)c1=O	inactive
COc1ccc(-n2nc(C(=O)O)nc2-c2ccccc2)cc1	inactive
CC1=C(C(=O)OCc2ccccc2)C(/C=C/c2ccccc2)NC(=S)N1 (configuration not stated)	active: 23.1 µM
CC(=O)c1sc(NC(=O)CN2C(=O)CCC2=O)nc1C	inconclusive [activator, partial curve, poor fit]
CCOC(=O)N1CCC(Nc2ccc3nnc(-c4ccccc4)n3n2)CC1	inconclusive [activator, full curve, poor fit]
CCCCNc1c(-c2ccc(-c3cccc(Cl)c3)cc2)nc2ccccn12	inconclusive [activator, single point]
CC(=O)c1ccc(Sc2nnnn2-c2ccccc2)c([N+](=O)[O-])c1	inconclusive [activator, single point]
O=C(/C=C/c1ccccc1F)c1ccoc1	inconclusive [activator, single point]
COc1ccc(CNC(=O)C2CC(c3ccc(C(F)(F)F)cc3)=NO2)cc1 (configuration not stated)	inconclusive [activator, full curve, poor fit]
COC(=O)c1ccc(-c2nn(C)c(=O)c3ccccc23)cc1	inactive
CC(C)(CN1CCN(c2ccccc2)CC1)NS(=O)(=O)c1ccccc1	inconclusive [activator, full curve, poor fit]
CNC(=S)NNC(=O)c1sccc1OCc1ccc(C)cc1	inconclusive [activator, partial curve, poor fit]
O=C(NC12CC3CC(CC(C3)C1)C2)c1ccc(-c2ccc(Cl)cc2)o1	inactive
Cn1c(=O)[nH]c2c(c(C(=O)O)nn2C)c1=O	inactive
N#CC1C=Cc2c(ccc3ccccc23)N1C(=O)c1ccccc1 (configuration not stated)	active: 1.46 µM
COC(=O)CSc1nnc(-c2ccncc2)n1N	inactive
CC/C=C/C(=O)N1CC2(CC(c3cccc(NC(=O)CC(c4ccccc4)c4ccccc4)c3)=NO2)C[C@@H]1C(N)=O (some centres not stated)	inconclusive [activator, single point]
O=C(C(=NNc1ccccc1)c1ccccc1)c1ccccc1	inconclusive [activator, single point]
CCCOc1ccc(NC(=O)CC2C(=O)N(Cc3ccccc3)C(=S)N2Cc2cccs2)cc1 (configuration not stated)	inconclusive [activator, partial curve, poor fit]
CN1CC(=O)NC1=NC(=O)c1ccc(Cl)c(S(=O)(=O)N2CCCCCC2)c1	inconclusive [activator, partial curve, poor fit]
Cc1ccc(C(=O)CC(C(=O)O)n2cnc([N+](=O)[O-])n2)cc1 (configuration not stated)	inconclusive [activator, single point]
COC(=O)C1=C(C)Nc2[nH]c(=S)[nH]c(=O)c2C1c1ccc(OC)cc1 (configuration not stated)	inactive

Structure (SMILES)	Potency
Cn1c(-c2sc3cc(C(F)(F)F)cnc3c2-c2ccccn2)n[nH]c1=S	inactive
CCOc1ccc2oc(C(=O)Nc3nccs3)c(C)c2c1	inconclusive [activator, single point]
N#C/C(=C\c1ccc(-c2ccccc2Cl)o1)C(=O)Nc1nc2ccccc2s1	inconclusive [activator, single point]
COc1ccc(C2=Nn3c(nnc3-c3ccccc3Cl)SC2)cc1OC1CCOC1 (configuration not stated)	inconclusive [activator, single point]
CC(C)Cn1c(-c2cc(Br)ccc2F)nc2c1c(=O)[nH]c(=O)n2CC(C)C	inconclusive [activator, single point]
CSc1nc2ccc(NC(=O)C3=NNC(=O)CC3)cc2s1	inconclusive [activator, partial curve, poor fit]
COc1ccc(S(=O)(=O)N2CCN(C(=O)CSC(=S)N3CCCC3)CC2)cc1	inactive
O=C(COC(=O)/C=C/c1ccc(F)cc1)Nc1ccccc1-c1ccccc1	inactive
CC(=O)N1C=CN(C(C)=O)C(c2cn(C)c3ccccc23)C1c1cn(C)c2ccccc12 (configuration not stated)	inactive
O=C(Nc1ccccc1)c1cccnc1NCCc1ccccc1	inactive
Cc1cc(C)c(NC(=O)COC(=O)c2ccc([N+](=O)[O-])s2)c(C)c1	inactive
Cc1ccc(-c2nnn(CC(=O)N(CC(=O)NC3CCCC3)c3cccc(F)c3)n2)o1	inactive
Oc1cccc(Nc2nc(-c3ccccc3Cl)nc3ccccc23)c1	inconclusive [activator, single point]
CC(C)(C)n1ncc2c(=O)n(Cc3c(Cl)cccc3Br)cnc21	inconclusive [activator, single point]
Cc1occc1C(=O)N1N=C(C2CC2)CC1(O)C(F)(F)F (configuration not stated)	inactive
Cc1cccc(NC(=O)CN2CCN(C(=O)c3oc4c(Cl)cccc4c3C)CC2)c1C	inconclusive [activator, single point]
O=C(Nc1ccc(OC(F)(F)F)cc1)C1CC(=O)N(Cc2ccco2)C1 (configuration not stated)	inactive
CCNc1nc(NCc2ccccc2)nc(Oc2ccc(=O)[nH]n2)n1	inconclusive [activator, single point]
COC(=O)C1=C(C)N(CC(C)C)C(=O)C1	inconclusive [activator, partial curve, poor fit]
O=C(O)/C(=C\c1ccc(Cl)c([N+](=O)[O-])c1)c1ccc(S(=O)(=O)N2CCCCC2)s1	inactive
CC1CCCN(C(=O)c2ccc(Br)c(S(=O)(=O)N3CCOCC3)c2)C1 (configuration not stated)	inactive
COc1cccc(NC(=O)CSC(N)=O)c1	inconclusive [activator, partial curve, poor fit]
O=C(/C=C/c1ccco1)Oc1cc(Br)cc(/C=N/NC(=O)c2ccccc2O)c1	inconclusive [activator, single point]
CCOc1ccccc1/C=C/C(=O)c1ccc(Cl)cc1	inconclusive [activator, single point]

Structure (SMILES)	Potency
OCC1(CCOc2ccccc2)CCN(Cc2ccc(OC(F)F)cc2)CC1	inconclusive [activator, partial curve]
O=C(O)c1ccc(N=NNc2cccc([N+](=O)[O-])c2)cc1	inactive
C=CCN(CC=C)Cc1c(O)ccc2c(=O)c(-c3ccccc3)coc12	active: 20.6 µM
Cc1ccc(NC(=O)CSc2nnc(Cn3c(=O)sc4ccccc43)n2C)cc1Cl	inconclusive [activator, partial curve, poor fit]
Cc1ccc2nc(SCC(=O)N3CCC(Cc4ccccc4)CC3)nc(=O)n2c1	inactive
CCCCOP(=O)(c1ccc(N(C)C)cc1)C(O)c1ccc(C(C)C)cc1 (configuration not stated)	inactive
Cc1ccc(S(=O)(=O)N2CCCCC2C(=O)N2CCN(Cc3ccccc3)CC2)cc1 (configuration not stated)	inconclusive [activator, single point]
N#C/C(=C(\O)Cc1ccccc1)c1nc2ccccc2[nH]1	inactive
COc1cccc(CN2CCCN(S(=O)(=O)c3ccc(Br)cc3)CC2)c1	inconclusive [activator, single point]
O=C(Nc1cccc(-c2cnc3ccccc3n2)c1)c1ccco1	inconclusive [activator, partial curve, poor fit]
O=C(NCC1CC1)c1onc(CSc2ccc(F)c(F)c2)c1C(=O)NCC1CC1	inconclusive [activator, single point]
O=C(/C=C/c1ccccc1O)c1ccccc1	inconclusive [activator, single point]
CCC(C)NCCOCCOc1ccc(Br)cc1C (configuration not stated)	inconclusive [activator, partial curve, poor fit]
Cc1ccc2nc(NC(=O)C3CCN(S(=O)(=O)c4cc([N+](=O)[O-])ccc4Cl)CC3)sc2c1	inactive
CN(C)/C=N/c1ncc(C(=O)c2ccc3ccccc3c2)s1	inconclusive [activator, single point]
Cc1ccc(-c2noc(CCC(=O)NCC3CCN(Cc4cccc(C)c4)CC3)n2)cc1	inactive
CCOc1cc(CNc2ccc3c(c2)OCCO3)cc(Br)c1OC	active: 1.64 µM
COc1ccc2c(c1OC)CN1CCc3cc4c(cc3[C@@H]1[C@@H]2O)OCO4	inactive
O=C(c1cc2nc(-c3ccc(F)cc3)cc(C(F)(F)F)n2n1)N1CCCCC1c1cccnc1 (configuration not stated)	inconclusive [activator, single point]
CC1(C)Cc2cccc(OCC(=O)Nc3ccccc3C(F)(F)F)c2O1	inconclusive [activator, single point]
Cc1ccc(C(O)(COC(=O)C(C)C)COC(=O)C(C)C)c(O)c1	inconclusive [activator, single point]
Cc1ccc(NCC(=O)c2ccc([N+](=O)[O-])cc2)cc1	inactive
CCc1ccc(NC(=O)CCc2nnc3ccc(N4CCCC4)nn23)cc1	inconclusive [activator, single point]
CCOC(=O)C1=C(CC)Nc2ccccc2N=C1NC(=O)c1oc2ccccc2c1C	inconclusive [activator, partial curve, poor fit]
